The record followed here is patent publication EP0478545B1, “1,2,4-BENZOTRIAZINE OXIDES AS RADIOSENSITIZERS AND SELECTIVE CYTOTOXIC AGENTS” (SRI INTERNATIONAL, priority 1989, dated 1991).

The data set has as its system HA-1 cells. The data set is described as follows: Hypoxic versus aerobic cytotoxicity from survival curves of cells in suspension culture. Conditions: HA-1 cells in vitro.

Where a name gives a salt, the structure may show the parent alone.

As to `CCN(CC)CCCNc1n[n+]([O-])c2ccccc2[n+]1[O-]` [Compound 18a, 3-(3-N,N-diethylaminopropylamino)-1,2,4 benzotriazine 1,4-dioxide], the “differential cytotoxicity against hypoxic cells compared to aerobic cells” value is “retaining the high differential cytotoxicity”.

Consider `CCN(CC)CCNc1n[n+]([O-])c2cc([N+](=O)[O-])ccc2[n+]1[O-]` [Compound 21, 7-nitro-3-(2-N,N-diethylaminoethylamino)-1,2,4-benzotriazine 1,4-dioxide hydrochloride], for which the “differential cytotoxicity against hypoxic cells compared to aerobic cells” value is recorded as “retaining the high differential cytotoxicity”.
